Data taken from PMC4336329 (PLoS ONE, 2015).
Among all 310,000 compounds or so, about 14,000 (4.5%) showed an effect of 50% or more. Effects have a minus sign here. The list shows a part of the results.

biological target: human ether-à-go-go-related gene (hERG) potassium channel (human, UniProt Q12809); test: primary screen, population patch clamp on CHO cells stably expressing hERG
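Note: peak tail current of the secondary pulse compared with the same well before compound.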

Chain of human ether-à-go-go-related gene (hERG) potassium channel (Q12809 whole entry, looked up): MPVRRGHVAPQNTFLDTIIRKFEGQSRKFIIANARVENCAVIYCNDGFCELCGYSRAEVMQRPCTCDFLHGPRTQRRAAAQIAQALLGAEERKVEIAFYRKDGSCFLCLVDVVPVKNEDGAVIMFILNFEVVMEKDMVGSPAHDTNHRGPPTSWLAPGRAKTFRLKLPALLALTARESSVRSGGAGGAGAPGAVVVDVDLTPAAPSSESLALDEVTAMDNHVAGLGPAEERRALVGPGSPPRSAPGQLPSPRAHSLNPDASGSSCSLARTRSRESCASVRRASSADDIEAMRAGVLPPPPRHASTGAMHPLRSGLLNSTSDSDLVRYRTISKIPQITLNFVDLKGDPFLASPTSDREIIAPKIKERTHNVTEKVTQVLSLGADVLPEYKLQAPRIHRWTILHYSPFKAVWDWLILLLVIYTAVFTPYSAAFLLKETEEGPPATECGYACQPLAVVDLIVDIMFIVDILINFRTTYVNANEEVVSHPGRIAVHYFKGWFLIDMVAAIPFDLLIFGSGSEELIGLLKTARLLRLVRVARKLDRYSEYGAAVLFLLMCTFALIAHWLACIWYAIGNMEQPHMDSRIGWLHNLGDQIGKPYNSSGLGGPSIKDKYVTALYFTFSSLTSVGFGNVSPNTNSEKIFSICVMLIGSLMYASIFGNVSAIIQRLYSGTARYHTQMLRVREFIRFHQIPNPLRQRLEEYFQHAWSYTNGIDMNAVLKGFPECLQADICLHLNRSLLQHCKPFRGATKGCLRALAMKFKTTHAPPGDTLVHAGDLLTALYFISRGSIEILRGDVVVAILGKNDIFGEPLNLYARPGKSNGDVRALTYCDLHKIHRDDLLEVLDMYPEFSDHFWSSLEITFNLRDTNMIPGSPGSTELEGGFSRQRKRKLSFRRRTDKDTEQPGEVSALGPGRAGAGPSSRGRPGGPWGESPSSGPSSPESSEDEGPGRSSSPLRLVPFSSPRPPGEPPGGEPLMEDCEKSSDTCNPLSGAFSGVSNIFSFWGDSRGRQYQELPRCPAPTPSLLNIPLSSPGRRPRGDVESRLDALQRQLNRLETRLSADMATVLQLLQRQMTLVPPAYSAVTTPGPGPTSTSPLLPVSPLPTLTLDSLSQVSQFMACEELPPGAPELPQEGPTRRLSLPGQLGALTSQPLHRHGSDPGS

Compared with `CCOC(=O)C1=C(C)Nc2nc(C)nn2C1c1ccc(OC)c(OC)c1` (stereo not shown), `COc1ccc(N2CC(C(=O)NCCc3ccc(OC)c(OC)c3)CC2=O)cc1` (stereo not shown) is lower in “hERG current change (%, negative = inhibition) at 10uM” value: 5.99% for the first, -0.856% for the second.

Going from `NC12CCc3c(no[n+]3[O-])C1(O)CC(c1ccccc1)=[N+]2[O-]` (stereo not shown) to `c1ccc(-c2n[nH]nc2-c2ccccc2)cc1`, the “hERG current change (%, negative = inhibition) at 10uM” value falls from 11.1% to -9.09%.

First: Cc1csc(SCC(=O)Nc2sccc2C#N)n1
Second: Cc1csc2c(=O)sc(NC(=O)c3ccc(F)cc3Cl)nc12
The “hERG current change (%, negative = inhibition) at 10uM” value of the first is lower: -0.612% for the first, 10.6% for the second.

First: CCN(CCCNC(=O)CNC(=O)c1nn(-c2ccc(OC)cc2)c(=O)c2ccccc12)c1cccc(C)c1
Second: CCOc1ccccc1NC(=O)COC(=O)c1cccc(-c2ccc(OC(C)=O)cc2)c1
The “hERG current change (%, negative = inhibition) at 10uM” value of the first is lower: -20.3% for the first, -3.87% for the second.

Compared with `CC(=O)C1C2c3ccccc3OC1(C)N=c1s/c(=C/c3cn(C)nc3C)c(=O)n12` (stereo not shown), `CC(=O)O.CC(=O)Oc1ccc2c(c1)OC(c1ccccc1)CC21CC(C)(C)NC(=O)N1` (stereo not shown) is higher in “hERG current change (%, negative = inhibition) at 10uM” value: -0.454% for the first, 3.82% for the second.

Going from `CNC(=S)Nc1cc(C(=O)N2CCCC2)ccc1N1CCCC1` to `CCOc1ccc(NC(=S)N2CCC(NC(=O)C3CCCCC3)CC2)cc1`, the “hERG current change (%, negative = inhibition) at 10uM” value falls from 28.1% to 14.7%.

First: O=C(Nc1ccc(O)cc1)c1ccccc1OCc1ccccc1
Second: O=C(Nc1ccc([N+](=O)[O-])cc1)c1ccccc1F
The “hERG current change (%, negative = inhibition) at 10uM” value of the first is higher: 10.8% for the first, -7.78% for the second.

First: CCCCC(=O)Nc1ccc(N2CCN(C(=O)CC)CC2)cc1
Second: Cc1ccc(NC(=O)C2CCN(C(=O)c3ccccc3C)CC2)cc1
The “hERG current change (%, negative = inhibition) at 10uM” value of the first is lower: -2.35% for the first, 27.7% for the second.

Compared with `C[C@@H]1CC=C[C@H]2[C@H]1C(=O)N(Cc1ccccc1)[C@H]2c1ccc2ccccc2c1`, `O=C(Nc1cn(-c2ccccc2)nc1-c1ccc(F)cc1)c1ccccc1` is higher in “hERG current change (%, negative = inhibition) at 10uM” value: 3.52% for the first, 15.6% for the second.

Compared with `COc1cc(NC(=O)c2cc(-c3cccnc3)nc3ccc(Br)cc23)cc(OC)c1`, `Cc1ccc2nc(-c3ccc(NC(=O)c4ccco4)cc3)[nH]c2c1` is higher in “hERG current change (%, negative = inhibition) at 10uM” value: -29.3% for the first, -9.74% for the second.

Going from `Cn1c(-c2cccc([N+](=O)[O-])c2)cnc1NCc1cccc([N+](=O)[O-])c1.O=C(O)C(=O)O` to `O=C(O)COc1ccc(S(=O)(=O)c2ccc(OCC(=O)O)cc2)cc1`, the “hERG current change (%, negative = inhibition) at 10uM” value rises from -77.8% to -1.63%.

Going from `CCOC(=O)N1CCN(C(=S)NC)CC1` to `CCN1CCN(CC(=O)Nc2cc(C)on2)CC1.O=C(O)C(=O)O`, the “hERG current change (%, negative = inhibition) at 10uM” value rises from 10.6% to 19.5%.

First: COc1ccc(Cn2ccnc2SCC(=O)NC2CCCC2)cc1
Second: COc1cc(NC(=O)CSc2nnnn2C2CCCC2)cc(OC)c1
The “hERG current change (%, negative = inhibition) at 10uM” value of the first is lower: 9.94% for the first, 13.6% for the second.

Going from `COc1nc(NCCc2ccc(OC)c(OC)c2)nc(Nc2ccccc2)n1` to `COc1ccc(CCNC(=O)CCSc2nc(-c3ccco3)cc(C(F)(F)F)n2)cc1`, the “hERG current change (%, negative = inhibition) at 10uM” value rises from -5.66% to 12.6%.

Compared with `Cc1ccc(C(C(=O)NC2CCCC2)N(Cc2cccs2)C(=O)CNC(=O)c2cccs2)o1` (stereo not shown), `Cc1cc(C)cc(C(=O)Nc2ccc(NC(=O)c3cccs3)cc2)c1` is higher in “hERG current change (%, negative = inhibition) at 10uM” value: -31.6% for the first, -6.6% for the second.

First: C/C(=N/Nc1nc(-c2ccc(Cl)cc2)cs1)c1cccs1
Second: S=c1[nH]nc(-c2ccncc2)n1/N=C/C(Cl)=C\c1ccccc1
The “hERG current change (%, negative = inhibition) at 10uM” value of the first is lower: 9.89% for the first, 23.3% for the second.

First: Br.CCn1c(=N)n(CC(=O)c2ccc(OC)cc2)c2ccccc21
Second: O=C(O)c1ccc(CSc2nnc(-c3ccco3)o2)cc1
The “hERG current change (%, negative = inhibition) at 10uM” value of the first is lower: -18.6% for the first, 2.07% for the second.

First: Cc1nc(N)sc1-c1csc(N(C)c2ccc(O)cc2)n1
Second: Oc1ccc(O)c(Cc2nc3ccccc3[nH]2)c1
The “hERG current change (%, negative = inhibition) at 10uM” value of the first is higher: 0.00228% for the first, -35.9% for the second.

First: CCOc1ccc(CCNC(=O)CSc2nc3ncc(Cl)cc3[nH]2)cc1OCC
Second: CCCCN=C1NC(=O)C(CC(=O)NCCc2ccc(OC)cc2)S1 (stereo not shown)
The “hERG current change (%, negative = inhibition) at 10uM” value of the first is higher: 10.8% for the first, 4.33% for the second.

First: CCCCCCN1CC(O)=C(c2nc3ccccc3[nH]2)C1=N
Second: CCCN1CCN(CCCNC(=O)CCCn2nc(C)c3sc4ccccc4c3c2=O)CC1
The “hERG current change (%, negative = inhibition) at 10uM” value of the first is higher: -8.94% for the first, -20.6% for the second.

Compared with `COC(=O)Cn1cnc2c(C#N)c3n(c2c1=O)CCCC3`, `Cc1ccc(S(=O)(=O)N2CCC(c3nc4c(nnn4Cc4ccccc4)c(=O)[nH]3)CC2)cc1` is lower in “hERG current change (%, negative = inhibition) at 10uM” value: -9.83% for the first, -26.6% for the second.

Compared with `N#Cc1ccc(N2C(=O)[C@@H]3C(C(=O)c4ccc5ccccc5n4)=NN[C@@H]3C2=O)cc1`, `Cc1ccc(NC(=O)c2cc(C(=O)c3cc(Cl)ccc3O)cn(-c3ccc(C)cc3)c2=O)cc1` is higher in “hERG current change (%, negative = inhibition) at 10uM” value: -4.57% for the first, 13.9% for the second.

Compared with `O=C(Cc1c(F)cccc1Cl)Nc1ccc(S(=O)(=O)NCC2CCCO2)cc1` (stereo not shown), `O=C(Nc1ccccc1)C1=C[C@@H](c2ccc3c(c2)OCO3)C[C@@H](OCCCCO)O1` is lower in “hERG current change (%, negative = inhibition) at 10uM” value: 3.76% for the first, -9.67% for the second.

Compared with `CC1(C)CC(=O)C(C(C2=C(O)CC(C)(C)CC2=O)c2ccc(Br)s2)C(=O)C1` (stereo not shown), `CCOC(=O)c1sc(=S)n2c1[nH]c(=O)c1ccc(C(=O)OC)cc12` is higher in “hERG current change (%, negative = inhibition) at 10uM” value: -9.92% for the first, 2.32% for the second.

First: CC(=O)O[C@H]1C(=O)[C@@]2(C)[C@H]([C@H](OC(=O)c3ccccc3)[C@]3(O)C[C@H](OC(=O)[C@H](O)[C@@H](NC(=O)c4ccccc4)c4ccccc4)C(C)=C1C3(C)C)[C@]1(OC(C)=O)CO[C@@H]1C[C@@H]2O
Second: Cc1ccc(S(=O)(=O)N(CC(=O)NCCSc2ccccn2)c2cc(C)cc(C)c2)cc1
The “hERG current change (%, negative = inhibition) at 10uM” value of the first is higher: 1.26% for the first, -12.9% for the second.

First: CCSc1nnc(NC(=O)CSc2nnc(CNC(=O)c3cc(OC)c(OC)c(OC)c3)o2)s1
Second: C=CCc1cc(C=O)cc(OC)c1OCc1c(Cl)cccc1Cl
The “hERG current change (%, negative = inhibition) at 10uM” value of the first is higher: 20% for the first, -16.6% for the second.
